Results: the supplement of paper PMC11417369
± gives the standard deviation of the averaged measurements. The list shows a part of the results.

Each sequence was assayed on PfAP2-I AP2 domain 3 (GST-tagged) (assay: gcPBM binding intensity (ln(normalized median fluorescence intensity)); higher = stronger DNA binding).
Outline: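 DNA-binding domains from P. falciparum, fused to GST and produced in E. coli, were put on an Agilent 4 × 180k double-stranded probe array for 1 h in 1× PBS holding 1% milk, 0.2 mg/ml BSA, 0.5% salmon testes DNA and 0.03% Triton X-100. Probes were primer-extended, 36 bp long and drawn from intergenic genomic regions, with negative controls included. After Alexa488 anti-GST antibody detection and a 488 nm scan, binding intensity was set as the highest Masliner-normalised natural-log median intensity across replicate spots of either probe orientation.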

Sequence	gcPBM binding intensity (ln)
TTTTTTTTTTTCTTTGCACACAGATAACTTGAAATT [CACACA_site2184]	9.26 ± 0.43
AATTTAATTATGGTAACACACAATAAAAAAAAATCT [CACACA_site568]	7.74 ± 0.75
ATATTTTATTTTCCATGTACACAAAAAAAAAAAAAA [XGTACX_site8327]	8.26 ± 0.39
AAGAAAATAAAGGATATGAAAAATAAAAAAAAGGAG [TGCATGCA_negctrl_site265]	8.68 ± 0.085
AGGTTAAAAATAAATACACACATTTTATGGGTGTAT [CACACA_site4702]	7.45 ± 0.61
ATATTATTAATATATTGTACTTTTTTTTTTTTATTT [XGTACX_site496]	7.92 ± 0.042
ATATGTATTTAATTCACACAAAAATATGTTCATGAA [CACACA_site5223]	7.7 ± 0.52
CACATTATGTATCATACACACAAATAAATATATAAT [CACACA_site4505]	7.75 ± 0.42
CCTTTATATTATAAAAGTACATAATATTTTATAAGT [XGTACX_site1629]	7.79 ± 0.2
AGCTCTATATTTTACACATGCGATTTGGATATATAT [TGCATGCA_site105]	7.78 ± 0.61
TAAATATATATCATCACACACACATACATAAATATA [CACACA_site183]	7.72 ± 0.47
ATATTACAACGTAACGAATATTTCATAAATTCTTAA [CACACA_negctrl_site770]	7.38 ± 0.71
TTATATAGATGGAATAGTACAGTATATATATATATA [XGTACX_site8755]	9.2 ± 0.69
ATTTCTCAATCGTAATGTACAAAAAAAAGGAAAAAA [XGTACX_site1193]	7.78 ± 0.49
GGTATAAAGAAATTTTGTACATATTTCTCCCTTTAA [XGTACX_site1874]	7.77 ± 0.62
AAAAAAAAAAAACACACACACACACTAATATATAAA [CACACA_site8302]	7.89 ± 0.28
TAATATATAAGAAACAAAAAAAAATAAAAATATATA [TGCATGCA_negctrl_site153]	7.48 ± 0.58
TAAAATAATTCGTAACGTACATATGTAATATAATAT [XGTACX_site6126]	7.96 ± 0.4
CGCATACACGGACACACACACACATATATATATATA [CACACA_site4520]	9.37 ± 0.23
GTGCTACATCATATGTGTACATATACCAAACTGTAT [XGTACX_site8233]	8.775 ± 0.064
ATATGTATTGGAGTGTGTACATATATATATATTTAT [XGTACX_site5633]	7.92 ± 0.43
TTAATAATGTTTTATTGTACTTTTTTGTGGGTTTAT [XGTACX_site5670]	8.145 ± 0.064

Sequence	gcPBM binding intensity (ln)
ATATACATTCAAGGCTGTACACTATATTTTTTTTTT [XGTACX_site6514]	8 ± 0.71
TTTGTGTAAAGAATCAGTACATATAATATATATATA [XGTACX_site1972]	8.74 ± 0.028
TAAAAATGGGAGGGGTGTACTACACAATAAAATTAT [XGTACX_site5641]	9.21 ± 0.12
TGTATTTTTAACATATGTACGAATAGCACGTGTTAT [XGTACX_site3640]	8.61 ± 0.5
TATTTTATATGATAGGTGCATTTTTTTTTTTTTTTT [GTGCAC_site9757]	10.5 ± 0.3
CTTGACCCCCTTTGTTGTACTGACATTTGTGAGCTT [XGTACX_site591]	8.37 ± 0.21
ATTTTTTCAAAATGGAAAACTTATCAGTGAAAAAAA [CACACA_negctrl_site1087]	8.02 ± 0.57
TAAGTGTATGTATATAAACACACATACATATATATA [CACACA_site8397]	8 ± 0.71
TAATTTAAAAATTCCTGTACTCAGTTTTTTCTATTT [XGTACX_site4961]	7.67 ± 0.53
TATAAAATTATTAAACAAGAAAATTTTAGGTAATAC [TGCATGCA_negctrl_site568]	7.9 ± 0.51
TTGATAAAACGTTATGCACACGTACGTGGGTATTTA [CACACA_site8445]	9.68 ± 0.22
TATAATATATTTTGATGTACAAATATATTATATATA [XGTACX_site8633]	7.54 ± 0.15
ATAATATATTTTTGAACACACAATATATATATATAT [CACACA_site4124]	9.23 ± 0.17
ATATAAATATGACACACACACAAAAAAAATAAAGAC [CACACA_site6208]	8.4 ± 0.61
AGTATACACGAACACACACACACATATATAAATATA [CACACA_site6913]	7.82 ± 0.39
TAAAGTATTACAACCACACACACACCCATATATTAT [CACACA_site4159]	8.05 ± 0.23
ATGTGATAGAAGTACACACACATATGTATTTATAAT [CACACA_site5075]	7.84 ± 0.59
TGTTTTATTTTTTTTGTGCACATACCTTTAGCATCA [GTGCAC_site9812]	10.64 ± 0.064
TAATTATAATAAATATTCATATGTTCAAATATATAT [CACACA_negctrl_site151]	7.68 ± 0.51
TAGAAGTACATATATGCATGTTAATTTTAAAGGAGG [TGCATGCA_site538]	7.91 ± 0.54
ATTAAAAATATTAGTTGTACTTTATATTTTCATATA [XGTACX_site3614]	7.7 ± 0.12
ATATATATATAGTGTTGTACATTTAAAAATAATATA [XGTACX_site2627]	9.28 ± 0.32

Sequence	gcPBM binding intensity (ln)
AATCAAAATAATTTAACACACAATTTTAATACTGTT [CACACA_site2375]	7.55 ± 0.57
TTTAAGAATTAACGGGGTACAATTCTTAAATATATA [XGTACX_site669]	8.195 ± 0.078
AAATTCCATGAAAAAAGTACTAATTAATACAATATA [XGTACX_site2877]	7.75 ± 0.4
TCTTTTATGCACATTGAGTAAACAACATATTTTTAA [TGCATGCA_negctrl_site561]	10.2 ± 0.76
TTTAAAAAAATTCATGCACACGAAATAAAAAGCACC [CACACA_site8214]	10.3 ± 0.22
TTTTTTATTAAAAGTAGTACACATGAAAAAAAAAAA [XGTACX_site5524]	8.31 ± 0.4
ATTTTTATAGAAATATGTACACAATATGTATATATT [XGTACX_site7993]	7.7 ± 0.47
TTAATATAGATATAACCACACACATACATCTAATTC [CACACA_site8519]	7.8 ± 0.46
TTTGTTGACAGACACACACACATACATATATATATA [CACACA_site2288]	9.2 ± 0.18
TATAATAATATAATGGTGCATGTATATAACCATATA	9.21 ± 0.14
GCTCTTTTGTTATGGTGTACCCTCCATGTAACATAA [XGTACX_site91]	8.27 ± 0.47
TTAATAATTCTTAAAAGTACATAACTTTTTTTTTTT [XGTACX_site751]	7.51 ± 0.3
TCTTACGGATTCATTGTGCACATATATATATATATA [GTGCAC_site9896]	10.6 ± 0.11
AAATAAATATAAATAAATAAATAAATAAATATATAT [CACACA_negctrl_site827]	7.69 ± 0.55
TATATATAATTCATACATTTTAAATATATTTATTTA [CACACA_negctrl_site840]	7.6 ± 0.33
TTTTAAAAACGGCATGCATGTAATACATGGAAGGAA [TGCATGCA_site480]	8.38 ± 0.81
TTTATAATTTTAAAATGTACAAGGAGGAAAAATTCT [XGTACX_site422]	8.16 ± 0.61
TATATAAATATTCGTAGTACAATACAATTATAAGTA [XGTACX_site3068]	7.72 ± 0.42
TTATATTTTATATTTACACACATTTATATTTATAAA [CACACA_site203]	7.72 ± 0.45
ATTTAATAAAAAAAAAAAATATTGTAGAATATGATG [GTGCAC_negctrl_site195]	7.45 ± 0.67
AATTTGTAAAATAAGGTGCGTATAAAAAATTATATT [GTGCAC_site9676]	9.71 ± 0.2
ATAAACATCGGTAGTACACACATTCATGTACTTGAT [CACACA_site3037]	8.05 ± 0.42

Sequence	gcPBM binding intensity (ln)
ATATACATATTCTTGTGTACATAAAAATTTATATAT [XGTACX_site8726]	8.06 ± 0.49
CAAATGGTAAATGAAAGTACAAATTGTTTTGATTAA [XGTACX_site1536]	7.51 ± 0.91
TATATATTAAAACACACACACATATATATATATATA [CACACA_site3787]	9.27 ± 0.24
CAGAAATATTAATGCTGTACGGAATACATATATTTT [XGTACX_site539]	7.53 ± 0.61
ATTTTAATGGGACATGCATGGGACAAACTACAAATT [TGCATGCA_site853]	8.33 ± 0.81
AGAATATTTATATGATGTACTTATATATATATATAT [XGTACX_site3021]	9.34 ± 0.46
TAAAAATATTTAAACTGTACTATTTTATGTTAAATG [XGTACX_site6620]	7.71 ± 0.092
ATAATCCAAAAAAATCAAATAAAATAAAATAAAATA [CACACA_negctrl_site449]	7.7 ± 0.61
AATAAAAACTACATGTGTACATAATAAATACATATA [XGTACX_site755]	7.87 ± 0.47
TTTTTTCTTTTCTTTTTATTTTATTTTGTTTTATTT [CACACA_negctrl_site799]	7.32 ± 0.64
TGTTGCAAAACAAAAAAAAAAAAAAAAAATAATAAT [CACACA_negctrl_site1642]	7.82 ± 0.24
TGAACCAGATTTAGAAGTACTAAATATTACATACAT [XGTACX_site2437]	7.55 ± 0.49
TTTTCTTACATGAGTGTACACACTTTTTTTCAGAAA [CACACA_site70]	8.16 ± 0.57
TTTATATAATTTTAATGTACATATATATATATAAAT [XGTACX_site4381]	7.78 ± 0.13
TTATTTGAATAATGTTTGCACTTAGAGTATTTTATA	8.82 ± 0.18
ATATATCATAAATAAATGAAAATATTTTCTATGTGT [CACACA_negctrl_site689]	7.77 ± 0.62
TTCTTCACATACACTTCAAAATTTGATAAAACATTA [CACACA_negctrl_site472]	8.24 ± 0.38
TAATAAATAAGATTCACACATATTTAAATGTTATGC [CACACA_site5275]	7.49 ± 0.47
TATCTATAATATTATACACACATATATGCATAATAT [CACACA_site6175]	8.33 ± 0.67
GTATATAATTTTTTTTTTTTTTTCATTCTTTTCCTT [CACACA_negctrl_site1780]	7.75 ± 0.59
ATGAATTGACCATATTGTACATATTTAGGACTTACC [XGTACX_site8072]	7.96 ± 0.76
AAATATATGAAATATACACACTTCTTTGGTATTATT [CACACA_site4414]	7.5 ± 0.61
